Measurements taken from publication PMC3411106, “Structural analysis of the human SYCE2–TEX12 complex provides molecular insights into synaptonemal complex assembly” (Open Biology, 2012).
These are yes or no findings as the source states them, for the method shown. Some binding calls cover weakened binding; strength is not graded here. For some of these results: Sequences can lack the tags named with a protein. Each block holds one binder with its values, some of them ahead of it.

Tests used:
[1] = molecular target: SYCE2_(57–165)–TEX12 complex (hetero-octamer) (human) (UniProt Q6PIF2+Q9BXU0); assay: negative-stain transmission electron microscopy; purified complexes at 100 µM on carbon-coated grids, 0.1 per cent uranyl acetate; filament formation; both purified
[2] = molecular target: SYCE2_(57–165)–TEX12_(49–123) complex (hetero-octamer) (human) (UniProt Q6PIF2+Q9BXU0); assay: as above
[3] = molecular target: MBP–TEX12_(87–123) (human) (UniProt Q9BXU0); assay: SEC-MALS; 100 µl at 1–5 mg ml^−1 on Superdex 200 10/300 GL; 20 mM Tris pH 8.0, 150 mM KCl, 2 mM DTT; purified complexes or purified fusion proteins; both purified
[4] = molecular target: T1, MBP–SYCE2_(57–88) (human, UniProt Q6PIF2 57-88); assay: as above
T1 construct: human SYCE2, residues 57–88 (α1 region); Monomer by SEC–MALS; also called α1 region of SYCE2; source: E. coli Rosetta 2 (DE3); co-expressed (pRSFDuet-1), in clarified lysate for the pull-down; individually expressed, purified on amylose resin for SEC–MALS; not shown: MBP, N-terminal, kept
T1 chain (looked up): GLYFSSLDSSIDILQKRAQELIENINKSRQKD

binding [1]: binds
B1: SYCE2_(57–165)–TEX12 complex (hetero-octamer) (complex, UniProt Q6PIF2 57-165; Q9BXU0 1-123)
chain 1: GLYFSSLDSSIDILQKRAQELIENINKSRQKDHALMTNFRNSLKTKVSDLTEKLEERIYQIYNDHNKIIQEKLQEFTQKMAKISHLETELKQVCHSVETVYKDLCLQPE
chain 2: MMANHLVKPDNRNCKRPRELESPVPDSPQLSSLGKSDSSFSEISGLFYKDEALEKDLNDVSKEINLMLSTYAKLLSERAAVDASYIDEIDELFKEANAIENFLIQKREFLRQRFTVIANTLHR

binding [2]: binds
B2: SYCE2_(57–165)–TEX12_(49–123) complex (hetero-octamer) (complex, UniProt Q6PIF2 57-165; Q9BXU0 49-123)
chain 1: B1 chain 1
chain 2: KDEALEKDLNDVSKEINLMLSTYAKLLSERAAVDASYIDEIDELFKEANAIENFLIQKREFLRQRFTVIANTLHR

binding [3]: no binding (tested: 1–5 mg ml^−1 loaded)
B3: MBP–TEX12_(87–123) (domain or fragment, UniProt Q9BXU0 87-123)
chain: DEIDELFKEANAIENFLIQKREFLRQRFTVIANTLHR

binding [4]: no binding (tested: 1–5 mg ml^−1 loaded)
B4: MBP–SYCE2_(57–88) (domain or fragment, UniProt Q6PIF2 57-88)
chain: T1 chain (looked up)
